From PubChem BioAssay AID463173 (ICCB-Longwood Screening Facility, Harvard Medical School, 2010) come the findings set out here.

Hit rate of the full screen: of about 52,000 compounds, about 1,700 (3.3%) were called active. Rule as the data show it: active = survival mostly below about 52% (no sharp cut-off); inactive = mostly above about 56%. The list shows a part of the results.

This assay concerns Wild type. Description: S. aureus survival, RN4220 and DeltatarO strains – OD600, teichoic acid synthesis inhibitors, primary screen (AID 463173). The settings on record: S. aureus RN4220 wild type/DeltatarO growth, OD600, 18 h, stronger effect = lower value, screened at 18.75 µg/mL (by protocol).
As for `CC(C)c1ccc(CN(Cc2ccco2)c2cnc(S(C)(=O)=O)nc2C(=O)Nc2ccc(F)cc2)cc1`, the survival is inactive: 86%.

Regarding `Cc1ccc(C(=O)Nc2cc3nn(-c4ccccc4)nc3cc2Cl)c(C)c1`, the survival is inactive: 62%.

In the case of `Cc1nnc(N2CCC(C(=O)NCCc3ccccc3Cl)CC2)c2nn(-c3ccccc3)c(C)c12`, the survival is inactive: 124%.

For `Cc1cccc(N2CCN(C(=O)Nc3cn(CC(C)C)c(=O)c4ccccc34)CC2)c1C`, the survival was inactive: 68%.

On to `COc1ccccc1C(=O)Nc1ccncc1`, for which the survival was inactive: 105%.

As to `COc1ccccc1Cc1nc2ccccc2nc1SCC(=O)N(C)c1ccc(F)cc1`, the survival was inactive: 84%.

As for `CCc1nn(CC(=O)NCCCN(CC(C)C)CC(C)C)c(=O)c2cc3sc(C)cc3n12`, the survival is inactive: 131%.

As for `COc1ccccc1N1CCN(C(=O)Cn2cnc3onc(-c4ccc(F)cc4)c3c2=O)CC1`, the survival is inactive: 82%.

Take `CCOC(=O)/C(C#N)=C/c1ccc2c(c1)c1ccccc1n2CC`: the survival is inactive: 110%.

As to `CCCCN(C)C(=O)C1CCCN(c2ncnc3onc(C)c23)C1` (configuration not stated), the survival was inactive: 132%.

In the case of `O=C(O)c1ccc(/C=N/n2cnnc2)cc1`, the survival is inactive: 101%.

As for `CCOc1ccc(C(=O)Nc2cccc(-c3nc4cc(Cl)cc(Cl)c4o3)c2)cc1`, the survival is inactive: 69%.

In the case of `COc1ccc(Cn2c(=O)c3oc4ccccc4c3n(Cc3cccc(C(F)(F)F)c3)c2=O)cc1`, the survival was inactive: 81%.

For `O=C(c1ccc2c(=O)n(CCc3ccccc3)c(=O)[nH]c2c1)N1CCN(c2ccc(F)cc2)CC1`, the survival is inactive: 113%.

With `Cc1nn(-c2ccccc2)c2c1N(CC(=O)N1CCN(c3cccc(Cl)c3)CC1)C(=O)CS2`, the survival was inactive: 70%.

In the case of `COc1ccc(N=C2SC(C(=O)Nc3ccccc3)CC(=O)N2C)cc1` (configuration not stated), the survival was inactive: 104%.

Regarding `COc1cccc(N2CC(NC(=O)c3ccco3)CC2=O)c1` (configuration not stated), the survival was active: 10%.

As for `CCOc1cccc2sc(N3CCN(C(=O)C4CC4)CC3)nc12`, the survival was inactive: 53%.

`Cc1cccc(N2CCN(C(=O)c3ccc4c(c3)N(Cc3cccc(Cl)c3)C(=O)c3ccccc3S4=O)CC2C)c1` (configuration not stated): the survival was inactive: 88%.

In the case of `CCCn1cc(S(=O)(=O)c2ccc(CC)cc2)c(=O)c2cc(F)c(N(CC)CC)cc21`, the survival is inactive: 68%.

As to `CCOc1cccc(NC(=O)CSc2ncc(-c3ccccc3)[nH]2)c1`, the survival was inactive: 68%.

For `CCOc1ccc(CNC(=O)c2cc(=O)[nH]c3ccc(S(=O)(=O)N4CCCC4)cc23)cc1`, the survival is inactive: 70%.

For the molecule `COc1ccc(C(=O)Nc2nc3c(s2)CCCC3)cc1Cl`, the survival is inactive: 40%.

As to `COc1ccc(Cl)cc1CNCCSc1nnnn1C`, the survival is inactive: 74%.

For `Cn1c(=O)c2c(-c3ccccc3)n3c(c2n(C)c1=O)C(c1ccco1)Nc1ccccc1-3` (configuration not stated), the survival was inactive: 85%.

On to `CC(=O)c1ccc(N2CCN(C(=O)CCCCn3c(=O)[nH]c4ccccc4c3=O)CC2)cc1`, for which the survival is inactive: 153%.

Consider `c1nnnn1C12CC3CC(CC(C3)C1)C2`, for which the survival is inactive: 105%.

Consider `Cc1cc(C)cc(NC(=O)CCCn2c3ccccc3c(=O)c3ccccc32)c1`, for which the survival is inactive: 69%.

For the molecule `Cc1cccc(Cn2c(=O)n(CCC(=O)NCCc3ccc(Cl)cc3)c(=O)c3sccc32)c1`, the survival was inactive: 91%.

In the case of `CCOc1ccc(NC(=O)c2ccc3c(c2)CCN3S(=O)(=O)c2ccc(Cl)cc2)cc1`, the survival was inactive: 82%.

As for `Cc1ccc(NC(=O)CCC(=O)N2Cc3ccccc3Oc3ncccc32)cc1F`, the survival was inactive: 82%.

For `O=C(NCc1ccc(F)cc1)c1ccc2nc(N3CCCCC3)sc2c1`, the survival is inactive: 87%.

On to `COc1ccc(OC)c(CNC(=O)c2nn(C)c3c2CSc2ccccc2-3)c1`, for which the survival is inactive: 115%.

For the molecule `O=C(NC1CCCCC1)NC1CCN(Cc2nnnn2Cc2ccco2)CC1`, the survival is inactive: 97%.

`Fc1cccc(Cl)c1Cn1c(-c2cccs2)nc2ccccc21`: the survival was active: 26%.

Consider `Cc1cc(-c2ccc(C)c(S(=O)(=O)NCC3CCN(Cc4ccc(F)cc4)CC3)c2)on1`, for which the survival was inactive: 73%.

Turning to `CNC(=S)N(Cc1cc2cc(OC)ccc2[nH]c1=O)CC1CCCO1` (configuration not stated), the survival was inactive: 108%.

On to `O=C(NCC(c1ccc2c(c1)OCO2)N1CCOCC1)C(=O)Nc1cccc(Cl)c1` (configuration not stated), for which the survival is inactive: 73%.

As to `CC(=O)c1ccc(NC(=O)c2cc(S(=O)(=O)N3CCCCCC3)cn2C)cc1`, the survival was inactive: 70%.

For `COc1ccc(-c2nc3c(c(SCC(=O)Nc4ccccc4F)n2)Cc2cc(C)ccc2O3)cc1`, the survival was inactive: 80%.

Regarding `CC1CCCC(C)N1S(=O)(=O)c1ccccc1` (configuration not stated), the survival was inactive: 101%.

Consider `Cc1ccc(NC(=O)CCCc2nnc3n(C)c(=O)c4sccc4n23)cc1F`, for which the survival was inactive: 79%.

Turning to `CCCNC(=O)c1ccc2c(c1)sc1nc(-c3ccc(C)cc3)cn12`, the survival was inactive: 103%.

As to `NC(=O)C1(N2CCCCC2)CCN(C(=O)Nc2ccc(F)cc2)CC1`, the survival is inactive: 102%.

With `CCc1ccccc1NC(=O)CN1C(=O)c2ccccc2Sc2ncccc21`, the survival was inactive: 95%.

Regarding `O=C(CNC(=O)c1ccccc1)OCc1cc(=O)n2ccsc2n1`, the survival was inactive: 73%.

On to `CC1CCn2c(nc3cc(C(=O)NCc4ccccc4)ccc32)C1` (configuration not stated), for which the survival was inactive: 89%.

With `Cc1ccc(C)c(N2CCN(C(=O)C3CCCN(Cc4nc(-c5cccc(Cl)c5)oc4C)C3)CC2)c1` (configuration not stated), the survival was inactive: 81%.

Turning to `CCn1cc(C(=O)NCCCN2CCCC(C)C2)c(=O)c2cc(S(=O)(=O)N(C)C3CCCCC3)ccc21` (configuration not stated), the survival was inactive: 91%.

For the molecule `Cc1cc(C)cc(-n2ccn(CC(=O)Nc3cc(C)ccc3C)c(=O)c2=O)c1`, the survival was inactive: 88%.

As to `Cc1ccc(N2CC(NC(=O)c3ccc(S(=O)(=O)N4CCCC4)cc3)CC2=O)cc1C` (configuration not stated), the survival is inactive: 88%.

For `Nc1nc2ccccc2n1C(=O)c1ccccc1`, the survival is inactive: 114%.

For `COc1ccc(CCNc2nc(-c3ccc(OC)c(OC)c3)cc(C(F)(F)F)n2)cc1OC`, the survival was active: 0%.

`Cc1cccc(CS(=O)(=O)Cc2ccc(C(=O)NCCc3ccccc3)o2)c1`: the survival was inactive: 113%.

Turning to `Cc1ccc(-c2cn(-c3cccc(Cl)c3)c(S(=O)(=O)CC(=O)Nc3cccc(C)c3)n2)cc1`, the survival was inactive: 82%.

Regarding `CCOC(=O)c1c(S(=O)(=O)N2CCCC(C(=O)NCc3cccc(OC)c3)C2)c(C)n(C)c1C` (configuration not stated), the survival is inactive: 127%.

In the case of `COc1cccc(OC)c1C(=O)Nc1cccc(-c2cn3ccsc3n2)c1`, the survival was inactive: 72%.
